{"source": "paper PMC6546751", "about": "“Structural basis for substrate gripping and translocation by the ClpB AAA+ disaggregase” (Nature Communications, 2019)", "proteins": {"B1": {"name": "Escherichia coli ClpB K476C hyperactive middle-domain variant (enzyme)", "chain": "not shown", "notes": "ClpB, Escherichia coli, with K476C in helix L2 of the middle domain; NTD, NBD1 and NBD2 are seen in the maps; Expressed from the pDS56/RBSII plasmid; Hexamer (protomers P1-P6) in the cryo-EM structures; source: E. coli M15, purified (Ni-NTA, HisTrap HP)"}}, "target": "the molecule itself", "test": "cryo-EM structure; ClpB (150 μM) incubated with ATPγS (5 mM) and FITC-casein (150 µM) in 40 mM HEPES pH 7.5, 40 mM KCl, 10 mM MgCl2, 1 mM DTT; complex purified by SEC (Superose 6 Increase 3.2/300) before freezing", "data": [{"protein": "B1", "values": [{"measurement": "stoichiometry N", "value": 6}]}]}
